Values belong to the binder of their own block, whether it stands above or below them.
Assays:
[1] = molecular target: T1, Monkey CD3 on cynomolgus HSC-F cells (cynomolgus monkey, UniProt Q95LI5 22-198; Q95LI7 23-181; Q95LI8 22-171); experiment: flow cytometry on HSC-F cells
T1 construct: whole, on cells; also called Monkey CD3-expressing cynomolgus HSC-F cells; cynomolgus monkey CD3-expressing HSC-F cells

[2] = molecular target: T2, Human CD3 on Jurkat cells (human, UniProt P07766; P09693; P04234); experiment: flow cytometry on Jurkat cells
T2 construct: whole, on cells; also called Human CD3-expressing Jurkat cells; Jurkat (naturally expressing human CD3)

[3] = molecular target: T3, Human CD3εγ recombinant antigen (acrobiosystems, Cat. No. CDG-H52W5) (human, UniProt P07766 23-126; P09693 23-116); experiment: SPR chip (Carterra), antibody captured, antigen in flow
T3 construct: Bought recombinant protein

T1 sequence (Q95LI5 22-198, chain 1 of 3): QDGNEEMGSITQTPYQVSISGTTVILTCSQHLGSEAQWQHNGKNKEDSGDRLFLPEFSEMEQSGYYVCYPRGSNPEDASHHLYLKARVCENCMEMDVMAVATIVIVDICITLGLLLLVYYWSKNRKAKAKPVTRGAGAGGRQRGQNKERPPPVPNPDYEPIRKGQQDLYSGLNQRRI
T1 sequence (Q95LI7 23-181, chain 2 of 3, further chain): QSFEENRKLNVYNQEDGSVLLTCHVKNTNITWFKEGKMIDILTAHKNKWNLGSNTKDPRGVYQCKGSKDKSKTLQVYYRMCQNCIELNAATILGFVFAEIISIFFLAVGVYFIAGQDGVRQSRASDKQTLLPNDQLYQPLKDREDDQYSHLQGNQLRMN
T1 sequence (Q95LI8 22-171, chain 3 of 3, further chain): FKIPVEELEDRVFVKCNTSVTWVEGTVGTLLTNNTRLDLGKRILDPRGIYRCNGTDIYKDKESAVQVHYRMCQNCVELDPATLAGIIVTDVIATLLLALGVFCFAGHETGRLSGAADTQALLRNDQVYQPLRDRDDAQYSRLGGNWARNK

B1: CD3-MSLN bispecific antibody B36 (bispecific antibody, human IgG1, lambda)
heavy: EVQLVESGGGLVQPGGSLRLSCAASGFTFNTYAMNWVRQAPGKGLEWVARIRSKYNNYATYYADSVKDRFTISRDDSKSSLYLQMNSLKTEDTAMYYCVRHSNFPNSYVSWFAYWGQGTLVTVSSASTKGPSVFPLAPSSKSTSGGTAALGCLVKDYFPEPVTVSWNSGALTSGVHTFPAVLQSSGLYSLSSVVTVPSSSLGTQTYICNVNHKPSNTKVDKKV[letters of human IgG1 Fc with changes omitted]GGGGSGGGGSEVQLVESGGGLVQAGESLRLSCAVSGNIGSIRHMGWHRQDPGKERELVATITTVGTTYYANFVKGRFTISRDNAKNTVYLQMNSLKPEDTGVYYCRATAHPTDYWGQGTQVTVSS
light: [letters of about 100 residues omitted][letters of about 100 residues omitted]
notes: [VH36]-[CH]-[L]-[3C6 VHH] with [VL-1]-[CL]
EC50 [1]: 246 pM
EC50 [2]: 185 pM
Kd [3]: 1100 pM
koff [3]: 0.002 s⁻¹
kon [3]: 1.7e+06 M⁻¹ s⁻¹

B5: CD3-MSLN bispecific antibody B11 (bispecific antibody, human IgG1, lambda)
heavy: EVQLVESGGGLVQPGGSLRLSCAASGFTFNTYAMNWVRQAPGKGLEWVARIRSKYNNYATYYADSVKDRFTISRDDSKSSLYLQMNSLKTEDTAVYYCVRHSNFVNSYVSWFAYWGQGTLVTVSSASTKGPSVFPLAPSSKSTSGGTAALGCLVKDYFPEPVTVSWNSGALTSGVHTFPAVLQSSGLYSLSSVVTVPSSSLGTQTYICNVNHKPSNTKVDKKV[letters of human IgG1 Fc with changes omitted]GGGGSGGGGSEVQLVESGGGLVQAGESLRLSCAVSGNIGSIRHMGWHRQDPGKERELVATITTVGTTYYANFVKGRFTISRDNAKNTVYLQMNSLKPEDTGVYYCRATAHPTDYWGQGTQVTVSS
light: [letters of about 100 residues omitted][letters of about 100 residues omitted]
notes: [VH11]-[CH]-[L]-[3C6 VHH] with [VL-1]-[CL]
EC50 [1]: 145 pM
EC50 [2]: 106 pM
Kd [3]: 1600 pM
koff [3]: 0.0023 s⁻¹
kon [3]: 1.4e+06 M⁻¹ s⁻¹

B6: CD3-MSLN bispecific antibody B5 (bispecific antibody, human IgG1, lambda)
heavy: EVQLVESGGGLVQPGGSLRLSCAASGFTFNTYAMNWVRQAPGKGLEWVARIRSKYNNYATYYADSVKDRFTISRDDSKSILYLQMNSLKTEDTAVYYCVRHGNFKNSYVSWFAYWGQGTLVTVSSASTKGPSVFPLAPSSKSTSGGTAALGCLVKDYFPEPVTVSWNSGALTSGVHTFPAVLQSSGLYSLSSVVTVPSSSLGTQTYICNVNHKPSNTKVDKKV[letters of human IgG1 Fc with changes omitted]GGGGSGGGGSEVQLVESGGGLVQAGESLRLSCAVSGNIGSIRHMGWHRQDPGKERELVATITTVGTTYYANFVKGRFTISRDNAKNTVYLQMNSLKPEDTGVYYCRATAHPTDYWGQGTQVTVSS
light: [letters of about 100 residues omitted][letters of about 100 residues omitted]
notes: [VH5]-[CH]-[L]-[3C6 VHH] with [VL-1]-[CL]
EC50 [1]: 230 pM
EC50 [2]: 181 pM
Kd [3]: 3400 pM
koff [3]: 0.0027 s⁻¹
kon [3]: 800000 M⁻¹ s⁻¹

B7: CD3-MSLN bispecific antibody B26 (bispecific antibody, human IgG1, lambda)
heavy: EVQLVESGGGLVQPGGSLRLSCAASGFTFNTYAMNWVRQAPGKGLEWVARIRSKYNNYATYYADSVKDRFTISRDDSKSILYLQMNNLKTEDTAMYYCVRHGNFGNSQVSWFQYWGQGTLVTVSSASTKGPSVFPLAPSSKSTSGGTAALGCLVKDYFPEPVTVSWNSGALTSGVHTFPAVLQSSGLYSLSSVVTVPSSSLGTQTYICNVNHKPSNTKVDKKV[letters of human IgG1 Fc with changes omitted]GGGGSGGGGSEVQLVESGGGLVQAGESLRLSCAVSGNIGSIRHMGWHRQDPGKERELVATITTVGTTYYANFVKGRFTISRDNAKNTVYLQMNSLKPEDTGVYYCRATAHPTDYWGQGTQVTVSS
light: [letters of about 100 residues omitted][letters of about 100 residues omitted]
notes: [VH26]-[CH]-[L]-[3C6 VHH] with [VL-1]-[CL]
EC50 [1]: 339 pM
EC50 [2]: 218 pM
Kd [3]: 3100 pM
koff [3]: 0.005 s⁻¹
kon [3]: 1.6e+06 M⁻¹ s⁻¹

B8: CD3-MSLN bispecific antibody B14 (bispecific antibody, human IgG1, lambda)
heavy: EVQLVESGGGLVQPGGSLRLSCAASGFTFNTYAMNWVRQAPGKGLEWVARIRSKYNNYATYYADSVKDRFTISRDDSKSSLYLQMNSLKTEDTAMYYCVRHSNFGNSYVSWFEYWGQGTLVTVSSASTKGPSVFPLAPSSKSTSGGTAALGCLVKDYFPEPVTVSWNSGALTSGVHTFPAVLQSSGLYSLSSVVTVPSSSLGTQTYICNVNHKPSNTKVDKKV[letters of human IgG1 Fc with changes omitted]GGGGSGGGGSEVQLVESGGGLVQAGESLRLSCAVSGNIGSIRHMGWHRQDPGKERELVATITTVGTTYYANFVKGRFTISRDNAKNTVYLQMNSLKPEDTGVYYCRATAHPTDYWGQGTQVTVSS
light: [letters of about 100 residues omitted][letters of about 100 residues omitted]
notes: [VH14]-[CH]-[L]-[3C6 VHH] with [VL-1]-[CL]
EC50 [1]: 290 pM
EC50 [2]: 1960 pM
Kd [3]: 610 pM
koff [3]: 0.0014 s⁻¹
kon [3]: 2.3e+06 M⁻¹ s⁻¹

More lines, in order of falling EC50 [1], values ahead:

EC50 [1]: 954 pM
EC50 [2]: 563 pM
B4: CD3-MSLN bispecific antibody B18 (bispecific antibody, human IgG1, lambda)
heavy: EVQLVESGGGLVQPGGSLRLSCAASGFTFNTYAMNWVRQAPGKGLEWVARIRSKYNNYATYYADSVKDRFTISRDDSKSSLYLQMNSLKTEDTAMYYCVRAGNFGNSYVNWFAYWGQGTLVTVSSASTKGPSVFPLAPSSKSTSGGTAALGCLVKDYFPEPVTVSWNSGALTSGVHTFPAVLQSSGLYSLSSVVTVPSSSLGTQTYICNVNHKPSNTKVDKKV[letters of human IgG1 Fc with changes omitted]GGGGSGGGGSEVQLVESGGGLVQAGESLRLSCAVSGNIGSIRHMGWHRQDPGKERELVATITTVGTTYYANFVKGRFTISRDNAKNTVYLQMNSLKPEDTGVYYCRATAHPTDYWGQGTQVTVSS
light: [letters of about 100 residues omitted][letters of about 100 residues omitted]
notes: [VH18]-[CH]-[L]-[3C6 VHH] with [VL-1]-[CL]

EC50 [1]: 216 pM
EC50 [2]: 2710 pM
Kd [3]: 2200 pM
koff [3]: 0.002 s⁻¹
kon [3]: 930000 M⁻¹ s⁻¹
B2: CD3-MSLN bispecific antibody B10 (bispecific antibody, human IgG1, lambda)
heavy: EVQLVESGGGLVQPGGSLRLSCAASGFTFNTYAMNWVRQAPGKGLEWVARIRSKYNNYATYYADSVKDRFTISRDDSKSSLYLQMNSLKTEDTAVYYCVRHSNFRNSYVSWFAYWGQGTLVTVSSASTKGPSVFPLAPSSKSTSGGTAALGCLVKDYFPEPVTVSWNSGALTSGVHTFPAVLQSSGLYSLSSVVTVPSSSLGTQTYICNVNHKPSNTKVDKKV[letters of human IgG1 Fc with changes omitted]GGGGSGGGGSEVQLVESGGGLVQAGESLRLSCAVSGNIGSIRHMGWHRQDPGKERELVATITTVGTTYYANFVKGRFTISRDNAKNTVYLQMNSLKPEDTGVYYCRATAHPTDYWGQGTQVTVSS
light: [letters of about 100 residues omitted][letters of about 100 residues omitted]
notes: [VH10]-[CH]-[L]-[3C6 VHH] with [VL-1]-[CL]

EC50 [1]: 204 pM
EC50 [2]: 433 pM
Kd [3]: 1400 pM
koff [3]: 0.0013 s⁻¹
kon [3]: 910000 M⁻¹ s⁻¹
B3: CD3-MSLN bispecific antibody B16 (bispecific antibody, human IgG1, lambda)
heavy: EVQLVESGGGLVQPGGSLRLSCAASGFTFNTYAMNWVRQAPGKGLEWVARIRSKYNNYATYYADSVKGRFTISRDDSKSILYLQMNSLKTEDTAVYYCVRHGNFGNSYVSWFQYWGQGTLVTVSSASTKGPSVFPLAPSSKSTSGGTAALGCLVKDYFPEPVTVSWNSGALTSGVHTFPAVLQSSGLYSLSSVVTVPSSSLGTQTYICNVNHKPSNTKVDKKV[letters of human IgG1 Fc with changes omitted]GGGGSGGGGSEVQLVESGGGLVQAGESLRLSCAVSGNIGSIRHMGWHRQDPGKERELVATITTVGTTYYANFVKGRFTISRDNAKNTVYLQMNSLKPEDTGVYYCRATAHPTDYWGQGTQVTVSS
light: [letters of about 100 residues omitted][letters of about 100 residues omitted]
notes: [VH16]-[CH]-[L]-[3C6 VHH] with [VL-1]-[CL]
